Test results as given in PubChem BioAssay AID1465 (SRMLSC, 2008).
Out of some 220,000 compounds screened, about 160 (0.073%) were called active. The shares of active, inactive and inconclusive entries below differ from those in the screen.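 The calls were made as follows: active = fold induction of absorbance versus untreated yeast above a set limit, then at least 30% activation at any dose in follow-up; inconclusive = repeats straddling the limit, or above it without dose testing; inactive = fold induction below the set limit.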

assay: enhancers of respiration in Yfh1-depleted yeast, dose response, Friedreich's ataxia, plus single-dose screen (AID 1465); settings: S. cerevisiae Yfh1-off respiration, WST-1 reduction, 72 h; at 50 µM; stronger effect = higher value

SMILES	fold induction
Cn1c(=O)c(Nc2ccc(O)cc2)c2c3c(cccc31)C(=O)c1ccccc1-2	inconclusive: 1.35
O=C1CC(Nc2ccc(N3CCOCC3)cc2)C(=O)N1c1cccc(C(F)(F)F)c1 (stereo unspecified)	inconclusive: 1.34
CC(=O)c1ccc(NC(=O)c2ccc3nc(-c4ccco4)c(-c4ccco4)nc3c2)cc1	inconclusive: 1.28
CCNC(=S)N(Cc1ccc(OC)cc1)C1CC(=O)N(c2ccc(OCC)cc2)C1=O (stereo unspecified)	inactive: 0.92
O=C1NC(=S)S/C1=C\c1ccc(SCc2ccco2)o1	inconclusive: 1.41
COC(=O)C1CCN(C(=O)Cc2c(OC)ccc3cc(Br)ccc23)CC1	inactive: 0.95
CCOC(=O)c1cnn(-c2ccccc2)c1NC(=O)c1ccccc1C	inactive: 0.92
CCOc1ccc(N(C)S(=O)(=O)c2ccc(C)c(C(=O)OCC(=O)c3c[nH]c4ccccc34)c2)cc1	inconclusive: 1.33
CN1/C(=C/C(=O)c2nc(S(C)(=O)=O)ncc2Cl)C(C)(C)c2ccccc21	inconclusive: 1.33
C=CCn1c(=S)[nH]c2ccccc2c1=O	inconclusive: 1.14
CCCC(=O)NC(c1cccs1)c1cc(Cl)c2cccnc2c1O (stereo unspecified)	inactive: 1.06
CCOC(=O)/C(C#N)=C/C=C1\C=Cc2ccccc2N1CC	inactive: 1
CC(C)C(c1nnnn1CCc1ccccc1)N1CCOCC1 (stereo unspecified)	inactive: 1.03
CCN(CC)CCN1c2ccccc2Sc2ccc3ccccc3c21	inconclusive: 1.56
COc1cc(C(=O)ON=C2C=C(C)C(=O)C(C)=C2)cc(OC)c1OC	inconclusive: 1.35
COc1cc(/C=C2/C(=N)N3C=CSC3=NC2=O)ccc1OCCOc1ccc(NC(C)=O)cc1	inconclusive: 1.34
Cc1cc(C)c[n+](-c2nc3ccccc3nc2C(=C=[N-])C#N)c1	inconclusive: 1.35
COc1cc(/C=N/NC(=S)N/N=C/c2cc(OC)c(OC)c(OC)c2)cc(OC)c1OC	inconclusive: 1.34
Cc1ccc(NC(=S)N/N=C/c2c(C)nn(-c3ccccc3)c2N2CCCC2)cc1	inconclusive: 1.33

SMILES	fold induction
Cc1ccc(-c2cc3nc(-c4ccccc4)cc(N4CCC5(CC4)OCCO5)n3n2)cc1	inactive: 0.98
O=C(NCc1ccccn1)c1ccc(N2CCCC2)c([N+](=O)[O-])c1	inconclusive: 1.33
Cc1cc(Cl)ccc1OCCCC(=O)OCC(N)=O	inconclusive: 1.33
C=CCn1c(C)cc(C(=O)COc2ncnc3sccc23)c1C	inactive: 0.88
CCOC(=O)c1cc(-c2ccc(N)cc2)sc1N	inconclusive: 1.36
Cc1cc(C(=O)COC(=O)c2cc(O)c3ccccc3c2O)c(C)n1CC1CCCO1 (stereo unspecified)	inconclusive: 1.36
Nc1ccc(C(=O)OCC(=O)NC2CCCc3ccccc32)cc1[N+](=O)[O-] (stereo unspecified)	inconclusive: 1.15
CCn1c(-c2csc(-c3ccccc3)n2)n[nH]c1=S	inconclusive: 1.12
Cc1ccc(C(=O)NC(=S)Nc2ccc3[nH]c(=O)[nH]c3c2)c(C)c1	inconclusive: 1.33
CCC(C)/C(C)=N/NC(=O)c1cn(-c2ccccc2)nc1-c1ccccc1 (stereo unspecified)	inactive: 0.83
CCC(=O)NC(/C=C/c1ccccc1)c1cc([N+](=O)[O-])c2cccnc2c1O (stereo unspecified)	inactive: 1.36
Cc1nn(C)c(C)c1C1C(C#N)=C(N)Oc2n[nH]c(C)c21 (stereo unspecified)	inconclusive: 1.33
Cc1sc2ncnc(Sc3nnnn3-c3ccc(Cl)cc3)c2c1C	inconclusive: 1.4
CC1CCN(C(=S)c2cn(Cc3ccc(F)cc3)c3ccccc23)CC1	inconclusive: 1.26
Cc1cccc(NCC(=O)NNC(=S)Nc2ccccc2)c1	inconclusive: 1.35
CCOc1cc(/C=N/N=C2/NC(=O)C(CC(=O)O)S2)ccc1OCc1ccc(Cl)cc1Cl (stereo unspecified)	inconclusive: 1.33
C/C(=N\NC(=O)c1c(Cl)c(C)nn1C)c1cccc(NC(=O)COc2ccccc2)c1	inconclusive: 1.34
CCOC(=O)N1CCN(C(=O)c2cccc(NC(=O)c3ccco3)c2)CC1	inconclusive: 1.34
CC(=O)Oc1cc2c(cc1Cl)C1(CC(c3ccccc3Cl)O2)CC(C)(C)NC(=S)N1 (stereo unspecified)	inconclusive: 1.46

SMILES	fold induction
Cc1ccc(C)c(N2C(=N)S/C(=C\c3ccc(-c4ccccc4C(=O)O)o3)C2=O)c1	inconclusive: 1.34
O=c1[nH]c2ccc(Cl)cc2c(-c2ccccc2)c1SC(=S)N1CCCCC1	inconclusive: 1.22
Cc1cccc(Nc2nc(N)nc(CCl)n2)c1	inconclusive: 1.33
Cc1nc(SC(C)C(=O)Nc2cccc(C(F)(F)F)c2)c2c(C)c(C(=O)O)sc2n1 (stereo unspecified)	inactive: 1.09
NS(=O)(=O)c1ccc(N=Nc2ccc(=O)[nH]c2O)cc1	inconclusive: 1.73
COc1cc(C(=O)ON=C2C(C)=CC(=O)C=C2C)cc(OC)c1OC	inconclusive: 1.48
O[C@@H]1COC(Nc2ccc(N=Nc3ccccc3)cc2)C[C@@H]1O (stereo partly specified)	inconclusive: 1.33
CCCCCn1nc(C(=O)OCC(=O)c2c(N)n(C)c(=O)n(C)c2=O)c2ccccc2c1=O	inconclusive: 1.35
Cc1ccc(CN2C(=O)CCC2C(=O)NC(C)C)cc1 (stereo unspecified)	inactive: 1.04
CCN(CC)c1ccc(C(=O)OCc2cc(=O)oc3cc(O)ccc23)cc1	inconclusive: 1.09
COc1ccc(Nc2nc(Nc3ccc(OC)cc3)nc(SC3=NCCS3)n2)cc1	inconclusive: 1.53
O=c1ccc2cc3c([nH]c4ccc(Br)cc43)oc-2c1O	inconclusive: 1.33
CC(=O)c1ccc(-n2c(-c3cc(-c4ccco4)[nH]n3)n[nH]c2=S)cc1	inconclusive: 1.3
CCCCOc1ccc(C(=O)Nc2ccc(C)cc2[N+](=O)[O-])cc1	inconclusive: 1.33
COc1ccc2[nH]c3c(=O)n(Cc4ccco4)cnc3c2c1	inconclusive: 1.12
CN1/C(=C\C=C2/SC(=S)NC2=O)C(C)(C)c2ccccc21	inactive: 1.04
CCOc1ccc(N=Nc2c(N)[nH][nH]c2=O)cc1	inconclusive: 1.35
CCCCNC(=S)N1CCN(c2ccc(C(C)=O)cc2)CC1	inactive: 0.96
